Test results as given in a collection of fitness landscapes (doi:10.1126/science.1257360).
The list shows a part of the results.

B1: PhoQ; a variant is named by its letters at X, in order, P23837 (parent)
chain: MKKLLRLFFPLSLRVRFLLATAAVVLVLSLAYGMVALIGYSVSFDKTTFRLLRGESNLFYTLAKWENNKLHVELPENIDKQSPTMTLIYDENGQLLWAQRDVPWLMKMIQPDWLKSNGFHEIEADVNDTSLLLSGDHSIQQQLQEVREDDDDAEMTHSVAVNVYPATSRMPKLTIVVVDTIPVELKSSYMVWSWFIYVLSANLLLVIPLLWVAAWWSLRPIEALAKEVRELEEHNRELLNPATTRELTSLVRNLNRLLKSERERYDKYRTTLTDLTHSLKTPLXXLQXXLRSLRSEKMSVSDAEPVMLEQISRISQQIGYYLHRASMRGGTLLSRELHPVAPLLDNLTSALNKVYQRKGVNISLDISPEISFVGEQNDFVEVMGNVLDNACKYCLEFVEISARQTDEHLYIVVEDDGPGIPLSKREVIFDRGQRVDTLRPGQGVGLAVAREITEQYEGKIVAGESMLGGARMEVIFGRQHSAPKDE

Variants of: B1
Experiment: enrichment ratio after two sorts for PhoP signalling (ratio (wild type AVST 3.29)); higher = more functional
Details: with PhoP (E. coli)
In the case of DMID, the enrichment ratio is reported as at most 0.25.
GKMT gave an enrichment ratio of at most 0.25.
With DRRE the enrichment ratio was at most 0.25.
With RKFV the enrichment ratio was at most 0.25.
Work on VCKR yielded an enrichment ratio of at most 0.25.
Variant PCIY has an enrichment ratio of at most 0.25.
Variant ARFE has an enrichment ratio of at most 0.25.
For MVSW, the enrichment ratio was at most 0.25.
For TECM, the enrichment ratio was 31.3.
PHAH showed an enrichment ratio of at most 0.25.
HRGD gave an enrichment ratio of at most 0.25.
Variant IINL has an enrichment ratio of at most 0.25.
YEHQ gave an enrichment ratio of at most 0.25.
With NLKQ the enrichment ratio was at most 0.25.
Work on SIMS yielded an enrichment ratio of 12.1.
Work on AMFS yielded an enrichment ratio of at most 0.25.
Variant TEKC has an enrichment ratio of at most 0.25.
TEQL showed an enrichment ratio of 5.48.
TFAW was tested, and the enrichment ratio was at most 0.25.
EGAK showed an enrichment ratio of at most 0.25.
EEAG gave an enrichment ratio of at most 0.25.
EVIR showed an enrichment ratio of at most 0.25.
Work on KNSY yielded an enrichment ratio of at most 0.25.
GMTS gave an enrichment ratio of at most 0.25.
In the case of GPSS, the enrichment ratio is reported as at most 0.25.
Variant VQEG has an enrichment ratio of at most 0.25.
For IHWS, the enrichment ratio was at most 0.25.
Variant IHEF has an enrichment ratio of at most 0.25.
GAIQ showed an enrichment ratio of 6.62.
Variant VGWT has an enrichment ratio of 1.62.
Work on GHEV yielded an enrichment ratio of at most 0.25.
Work on QQFQ yielded an enrichment ratio of at most 0.25.
With GICM the enrichment ratio was 38.3.
With RNHL the enrichment ratio was at most 0.25.
In the case of AACP, the enrichment ratio is reported as at most 0.25.
With WEPT the enrichment ratio was at most 0.25.
In the case of NADG, the enrichment ratio is reported as at most 0.25.
In the case of GMSP, the enrichment ratio is reported as at most 0.25.
SACA gave an enrichment ratio of 9.67.
DTSR showed an enrichment ratio of at most 0.25.
Work on MSEA yielded an enrichment ratio of at most 0.25.
AFAI was tested, and the enrichment ratio was at most 0.25.
For WAWN, the enrichment ratio was at most 0.25.
QIKG showed an enrichment ratio of at most 0.25.
Variant SHLP has an enrichment ratio of at most 0.25.
In the case of KQPS, the enrichment ratio is reported as at most 0.25.
Variant QFKA has an enrichment ratio of at most 0.25.
In the case of DYTR, the enrichment ratio is reported as at most 0.25.
Work on KGLK yielded an enrichment ratio of at most 0.25.
Variant YSVK has an enrichment ratio of at most 0.25.
In the case of DGYQ, the enrichment ratio is reported as at most 0.25.
VSCE gave an enrichment ratio of at most 0.25.
Variant YWHR has an enrichment ratio of at most 0.25.
Variant QVMV has an enrichment ratio of at most 0.25.
KVCR showed an enrichment ratio of at most 0.25.
Variant TPNA has an enrichment ratio of at most 0.25.
With DIGG the enrichment ratio was at most 0.25.
Variant LEAF has an enrichment ratio of at most 0.25.
Work on KMAT yielded an enrichment ratio of at most 0.25.
Variant IWHV has an enrichment ratio of at most 0.25.
For EIMN, the enrichment ratio was at most 0.25.
For GYPY, the enrichment ratio was at most 0.25.
Work on GCSF yielded an enrichment ratio of 5.32.
For MLDC, the enrichment ratio was at most 0.25.
For VTSI, the enrichment ratio was 2.17.
For EQNV, the enrichment ratio was at most 0.25.
For SRYV, the enrichment ratio was at most 0.25.
For AYKV, the enrichment ratio was at most 0.25.
NQGC was tested, and the enrichment ratio was at most 0.25.
Variant AVNH has an enrichment ratio of at most 0.25.
TERW gave an enrichment ratio of at most 0.25.
Variant IRGI has an enrichment ratio of at most 0.25.
For MAKD, the enrichment ratio was at most 0.25.
LKNN was tested, and the enrichment ratio was at most 0.25.
TVMC was tested, and the enrichment ratio was 5.63.
For NEVN, the enrichment ratio was at most 0.25.
CTFH gave an enrichment ratio of at most 0.25.
TRTW was tested, and the enrichment ratio was at most 0.25.
HTPI was tested, and the enrichment ratio was at most 0.25.
With ISTV the enrichment ratio was 0.91.
For QIDR, the enrichment ratio was at most 0.25.
With WNYL the enrichment ratio was at most 0.25.
In the case of MDPP, the enrichment ratio is reported as at most 0.25.
With DSWD the enrichment ratio was at most 0.25.
In the case of MFTH, the enrichment ratio is reported as at most 0.25.
Work on SELL yielded an enrichment ratio of 16.3.
For PCQI, the enrichment ratio was at most 0.25.
PGGI was tested, and the enrichment ratio was at most 0.25.
GGRH showed an enrichment ratio of at most 0.25.
In the case of FPGC, the enrichment ratio is reported as at most 0.25.
Work on RECL yielded an enrichment ratio of at most 0.25.
Work on YQDI yielded an enrichment ratio of at most 0.25.
PMIN showed an enrichment ratio of at most 0.25.
For TMQI, the enrichment ratio was 12.3.
For LQSA, the enrichment ratio was at most 0.25.
VSNY was tested, and the enrichment ratio was at most 0.25.
YNCG gave an enrichment ratio of at most 0.25.
For SSLD, the enrichment ratio was 8.94.
Variant STHQ has an enrichment ratio of at most 0.25.
Variant FSFY has an enrichment ratio of at most 0.25.
In the case of PITM, the enrichment ratio is reported as at most 0.25.
Variant PGAF has an enrichment ratio of at most 0.25.
In the case of DWWL, the enrichment ratio is reported as at most 0.25.
In the case of RMRP, the enrichment ratio is reported as at most 0.25.
In the case of RSYH, the enrichment ratio is reported as at most 0.25.
RDIV was tested, and the enrichment ratio was at most 0.25.
In the case of TAQR, the enrichment ratio is reported as at most 0.25.
In the case of NITM, the enrichment ratio is reported as at most 0.25.
With VANM the enrichment ratio was at most 0.25.
With FRGC the enrichment ratio was at most 0.25.
With LAQV the enrichment ratio was at most 0.25.
Variant HTQY has an enrichment ratio of at most 0.25.
Work on WFLI yielded an enrichment ratio of at most 0.25.
PCRA showed an enrichment ratio of at most 0.25.
Variant NDQN has an enrichment ratio of at most 0.25.
Variant PRCR has an enrichment ratio of at most 0.25.
SEVQ showed an enrichment ratio of 11.9.
YHRG gave an enrichment ratio of at most 0.25.
For SMWP, the enrichment ratio was at most 0.25.
Variant RNPF has an enrichment ratio of at most 0.25.
FLCA showed an enrichment ratio of at most 0.25.
For INHW, the enrichment ratio was at most 0.25.
FMRP was tested, and the enrichment ratio was at most 0.25.
GINV showed an enrichment ratio of at most 0.25.
TVFY gave an enrichment ratio of at most 0.25.
With ICDD the enrichment ratio was at most 0.25.
TIFS was tested, and the enrichment ratio was at most 0.25.
In the case of WLQG, the enrichment ratio is reported as at most 0.25.
With KFYM the enrichment ratio was at most 0.25.
Variant SSMA has an enrichment ratio of 10.1.
GCIN was tested, and the enrichment ratio was 1.39.
YRLQ gave an enrichment ratio of at most 0.25.
KHQH was tested, and the enrichment ratio was at most 0.25.
Variant FHCH has an enrichment ratio of at most 0.25.
Variant QYHH has an enrichment ratio of at most 0.25.
With LEGN the enrichment ratio was at most 0.25.
EEAM showed an enrichment ratio of at most 0.25.
In the case of NIGI, the enrichment ratio is reported as at most 0.25.
YSEE showed an enrichment ratio of 1.02.
With PYRN the enrichment ratio was at most 0.25.
RGFE gave an enrichment ratio of at most 0.25.
Work on RASN yielded an enrichment ratio of at most 0.25.
In the case of KPSI, the enrichment ratio is reported as at most 0.25.
For VWIL, the enrichment ratio was at most 0.25.
With TQSF the enrichment ratio was 7.45.
IDRG showed an enrichment ratio of at most 0.25.
In the case of TYIQ, the enrichment ratio is reported as at most 0.25.
Variant RDWN has an enrichment ratio of at most 0.25.
KGNF gave an enrichment ratio of at most 0.25.
With DNVK the enrichment ratio was at most 0.25.
Variant GSVM has an enrichment ratio of 4.79.
For WSFE, the enrichment ratio was at most 0.25.
YSQN gave an enrichment ratio of at most 0.25.
Variant VFEH has an enrichment ratio of at most 0.25.
TSVP was tested, and the enrichment ratio was at most 0.25.
Variant PSYK has an enrichment ratio of at most 0.25.
In the case of LHKQ, the enrichment ratio is reported as at most 0.25.
In the case of PFQH, the enrichment ratio is reported as at most 0.25.
Work on HALD yielded an enrichment ratio of at most 0.25.
QPFM gave an enrichment ratio of at most 0.25.
YPMG showed an enrichment ratio of at most 0.25.
MFYS was tested, and the enrichment ratio was at most 0.25.
Variant INLH has an enrichment ratio of at most 0.25.
In the case of GHIE, the enrichment ratio is reported as at most 0.25.
FWML was tested, and the enrichment ratio was at most 0.25.
For RANQ, the enrichment ratio was at most 0.25.
Work on WDKR yielded an enrichment ratio of at most 0.25.
For QQHW, the enrichment ratio was at most 0.25.
KWLV was tested, and the enrichment ratio was at most 0.25.
With YQLM the enrichment ratio was 17.7.
RKFF gave an enrichment ratio of at most 0.25.
Variant RYIP has an enrichment ratio of at most 0.25.
MLIQ showed an enrichment ratio of at most 0.25.
For DHYW, the enrichment ratio was at most 0.25.
GEES was tested, and the enrichment ratio was at most 0.25.
Variant DTTQ has an enrichment ratio of at most 0.25.
KKMY was tested, and the enrichment ratio was at most 0.25.
FDVC was tested, and the enrichment ratio was at most 0.25.
ICVW showed an enrichment ratio of at most 0.25.
In the case of DPSE, the enrichment ratio is reported as at most 0.25.
Work on WSGA yielded an enrichment ratio of at most 0.25.
With YRRH the enrichment ratio was at most 0.25.
For GYRF, the enrichment ratio was at most 0.25.
With KYAA the enrichment ratio was at most 0.25.
For QMVR, the enrichment ratio was at most 0.25.
With RARR the enrichment ratio was at most 0.25.
LPAS was tested, and the enrichment ratio was at most 0.25.
In the case of LLMP, the enrichment ratio is reported as at most 0.25.
AYTS showed an enrichment ratio of at most 0.25.
For RNNI, the enrichment ratio was at most 0.25.
For GLPC, the enrichment ratio was at most 0.25.
Variant LHPS has an enrichment ratio of at most 0.25.
With FYFD the enrichment ratio was at most 0.25.
For FKDQ, the enrichment ratio was at most 0.25.
VDKA gave an enrichment ratio of at most 0.25.
